# In publication PMC10562560, “Molecular basis for cellular retinoic acid-binding protein 1 in modulating CaMKII activation” (Frontiers in Molecular Biosciences, 2023):
# B1: GFP-CaMKII beta, inactive (from vehicle-treated HEK293T cells) (enzyme, Rattus norvegicus)
# chain: MATTVTCTRFTDEYQLYEDIGKGAFSVVRRCVKLCTGHEYAAKIINTKKLSARDHQKLEREARICRLLKHSNIVRLHDSISEEGFHYLVFDLVTGGELFEDIVAREYYSEADASHCIQQILEAVLHCHQMGVVHRDLKPENLLLASKCKGAAVKLADFGLAIEVQGDQQAWFGFAGTPGYLSPEVLRKEAYGKPVDIWACGVILYILLVGYPPFWDEDQHKLYQQIKAGAYDFPSPEWDTVTPEAKNLINQMLTINPAKRITAHEALKHPWVCQRSTVASMMHRQETVECLKK[skipping about 20 residues]VGRQTTAPATMSTAASGTTMGLVEQAKSLLNKKADGVKPQTNSTKNSSAITSPKGSLPPAALEPQTTVIHNPVDGIKESSDSTNTTIEDEDAKARKQEIIKTTEQLIEAVNNGDFEAYAKICDPGLTSFEPEALGNLVEGMDFHRFYFENLLAKNSKPIHTTILNPHVHVIGEDAACIAYIRLTQYIDGQGRPRTSQSEETRVWHRPDGKWQNVHFHCSGAPVAPLQ
# notes: Calcium/calmodulin-dependent protein kinase II beta isoform (CaMKII beta), Rattus norvegicus, expression construct Addgene #21227; the state in the lysate was not measured; also called CaMKII (– ionomycin); source: HEK293T, transfected, DMSO (vehicle) treated, in lysate
# Biological target: T1, His-tagged wild-type (WT) CRABP1 (Mus musculus, UniProt P62965)
# T1 construct: Expected MW about 17 kDa; also called His-CRABP1; source: E. coli, purified (HisTrap nickel column, SEC)
# Assay: pull-down; purified His-CRABP1 (WT or mutant, 5 uM) held on Ni-NTA resin as bait; 250 ug pre-cleared lysate of HEK293T cells expressing GFP-CaMKII (DMSO or ionomycin 10 uM, 10 min) as prey; 50 mM Tris pH 8.0, 150 mM NaCl, 0.2% NP-40, 20% glycerol, 200 mM imidazole, overnight at 4°C; Western blot with anti-GFP and anti-His; densitometry gives the CCI (n = 5)
# Details: one partner purified
# T1 sequence (P62965 2-137): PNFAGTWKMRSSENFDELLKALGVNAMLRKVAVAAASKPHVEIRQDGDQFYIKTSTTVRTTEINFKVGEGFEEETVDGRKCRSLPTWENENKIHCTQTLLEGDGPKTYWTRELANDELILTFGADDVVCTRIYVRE
binder,measurement,value
B1,CRABP1–CaMKII Complex Index (CCI; ratio of inactive to active CaMKII pulled down),~2
